# Measured values reported in PubChem BioAssay AID2546 (National Center for Advancing Translational Sciences (NCATS), 2010).
# About 11,000 (3.5%) of roughly 310,000 compounds were called active. This list was built around the results that the source calls inconclusive (neither active nor inactive); the mix of calls is not that of the screen. The call rests on the fitted dose curve; in most records, active means well fitted inhibition curve with a large enough effect; inconclusive means small, poorly fitted or top-dose-only effect, or effect the other way; inactive means flat fitted curve, though single readings scatter. No potency is given beside an inconclusive call; the fits are too rough.
# Experiment: VP16 counterscreen qHTS for inhibitors of ROR gamma transcriptional activity;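 further: Gal4-VP16 expression switched on by copper sulfate through the metallothionein promoter; nearly all actives have a fitted effect of over 50% in size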
# Details: Drosophila S2 Gal4-VP16 UAS-luciferase, luminescence, 20 h; activity, negative = inhibition: at 53.6 µM (top of the series)
# On the % scale 0 is the no-effect control and ±100 the full control effect; potency means the concentration at half of the fitted maximal effect; tags describe the fitted curve by direction and shape.
Structure (SMILES),Potency,"activity, negative = inhibition"
O=C(NC(=S)NCC1CCCO1)c1ccccc1 (centres undefined),"inconclusive [inhibitor, single point]",
CCC(C(=O)Nc1cccc(C(F)(F)F)c1)c1ccccc1 (centres undefined),,inactive: -27.6%
N#C/C(=N\Nc1ccccc1)C(=N)N1CCCCC1,"inconclusive [inhibitor, single point]",
Cc1onc(-c2ccccc2Cl)c1C(=O)Nc1ccc(S(=O)(=O)N2CCCC2)cc1,,inactive: -4.97%
COc1cc(SC)ccc1C(=O)Nc1nc2ccccc2[nH]1,active: 0.316 µM,
CCc1ccccc1NC(=S)NN,"inconclusive [inhibitor, single point]",
CC(C)c1ccc(-c2nc3ccccc3s2)cc1,active: 2 µM,
CCC(c1nnnn1CCc1ccccc1)N(Cc1ccco1)Cc1cc2c(C)ccc(C)c2[nH]c1=O (centres undefined),,inactive: -26.1%
CCc1ccc(OCC(=O)NC(=S)Nc2ccc(Br)c(C)n2)cc1,,inactive: 5.33%
CCCCNC(=O)c1onc(CSc2cccc(Cl)c2)c1C(=O)O,,inactive: 0.116%
CCc1ccc(NC(=O)c2cnc3scc(C)n3c2=O)cc1,"inconclusive [activator, full curve, poor fit]",
CCCCCCC#Cc1cc(OC)c(OC)cc1C(N1CC(C)c2ccccc21)N1CC(C)c2ccccc21 (centres undefined),,inactive: -10.7% [at 10 µM]
CC(=O)NCCOc1cccc2cccnc12,,inactive: -1.7%
Cc1cc(-c2nc3ccccc3[nH]2)ccc1N,"inconclusive [inhibitor, single point]",
CC(C)Cn1c(-c2ccc(Br)o2)n[nH]c1=S,"inconclusive [inhibitor, single point]",
Fc1ccc(/C=N/NC(=S)Nc2ccc(Cl)cc2)cc1F,active: 1.41 µM,
Nc1ccc(Br)c2c1C(=O)c1ccccc1C2=O,,inactive: -3.05%
COCC(=O)N1CCC[C@@]2(CCN(Cc3nccs3)C2)C1,,inactive: 1.3%
Fc1ccccc1CNc1ncnc2sccc12,"inconclusive [inhibitor, partial curve]",
COc1ccc(CCNC(=O)C(=O)NCC2OCCN2S(=O)(=O)c2ccc(Cl)cc2)cc1OC (centres undefined),"inconclusive [inhibitor, single point]",
CCN(CC)CCn1c(=S)[nH]c2ccc(Br)cc2c1=O,active: 12.6 µM,
Cc1nnc(-c2ccc(N3CCCCCC3)c([N+](=O)[O-])c2)o1,,inactive: 6.94%
Cn1c(C23CC4CC(CC(C4)C2)C3)n[nH]c1=S,active: 8.91 µM,
COc1c(C(=O)Nc2ccc(Cc3ccncc3)cc2)ccc2ccccc12,"inconclusive [inhibitor, single point]",
